This is one part of the list.

This test has as its system PfHDP1 homeodomain (GST-tagged). Briefly: gcPBM binding intensity (ln(normalized median fluorescence intensity)); higher = stronger DNA binding. The procedure, abridged: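 Binding intensity is the highest Masliner-normalised natural-log median intensity over replicate spots in either probe orientation. To obtain it, GST-tagged P. falciparum DNA-binding domains made in E. coli were incubated for 1 h on an Agilent 4 × 180k array of primer-extended double-stranded 36-bp intergenic genomic probes plus negative controls. Detection used Alexa488 anti-GST antibody with scanning at 488 nm.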
Consider “ATATTTATATAGATGTGTACATAAATATAATAACAT [XGTACX_site1681]”, for which the “gcPBM binding intensity (ln)” value amounted to 6.82. Consider “ATATATATATATGTTTATTTATTTGAACGATTGTGG [CACACA_negctrl_site828]”, for which the “gcPBM binding intensity (ln)” value was 9.04. The figure for “TTTGGGTATACACATACATGCATGTCCTTATATATA [TGCATGCA_site84]” is 7.46; for “ATATCATAAATTTATGCATGTTCTTTCTTCAACTCT [TGCATGCA_site992]” it is 6.9; for “GAATAAAAAATTGGCACACATAAATATATGGATATA [CACACA_site3047]” it is 6.28. With “TTCAACATATTAAAAAGTACAGAATATAACATTATA [XGTACX_site1361]”, the “gcPBM binding intensity (ln)” value stood at 6.36. The figure for “TATACGTGAATGACAGTGCATTTCAAAAGTATAAAA [GTGCAC_site9887]” is 7.92; for “AATAAATTTAGACACACACACACATATAAATAAATA [CACACA_site6531]” it is 6.96; for “ATAATATAATATATATGTACACATCCTTTTTGTGTA [XGTACX_site2879]” it is 6.7. Take “TAAAAGTAAAAAGGTAGTACCTAAATAATATATATA [XGTACX_site8399]”: the “gcPBM binding intensity (ln)” value was 6.92. The figure for “TGTGTAATATTCTGTTGTACATAACTCATAAATAAA [XGTACX_site5308]” is 6.46; for “TATATATCCTCTGAATGTACTTGTTTAATAATGTAG [XGTACX_site4332]” it is 6.11. For the sequence “ATAAGATAGGCATATACACACATTTATTTACAGATA [CACACA_site5754]”, the “gcPBM binding intensity (ln)” value was 6.63.

Regarding “TATTTTACAAAATAAGGTACGTAAATATATGGTAGG [XGTACX_site2133]”, the “gcPBM binding intensity (ln)” value is 7.23. The figure for “AAATATCTTTTATATTGTACATATTCCTTATGTGGA [XGTACX_site7638]” is 6.23; for “AAAAACAAAAAAGAAGCACACATATATATATATATA [CACACA_site8779]” it is 9.36; for “AATATATAAATAAATACACACATAAAATAGAAATAT [CACACA_site1663]” it is 7.09. The figure for “CCTTATTATTATTTTACACACGTCCTAATAAGAGGA [CACACA_site1319]” is 6.95. With “TATTTAAAAATATATACACACATTTTATATTATTAT [CACACA_site781]” the figure was 6.32. Regarding “AATATTATATATATGGGTACTAATTCCTTTAATTTC [XGTACX_site102]”, the “gcPBM binding intensity (ln)” value turned out to be 6.04. With “TTTATCTGATATATTACACACAAAAAAAAAAAAAAA [CACACA_site7637]” the figure was 6.2. The figure for “TTATATATATATTATAGTACATATATAATATAGTAA [XGTACX_site6869]” is 6.14; for “ATATATGAGCAAAAATATATAAGATAACACATAAAT [CACACA_negctrl_site167]” it is 7.25. The figure for “TCTCTATAAATAAATACATGCATATAATAAAGAATT [TGCATGCA_site710]” is 6.98; for “GAAATAGAAATAAAATAGGCATACAATAGAACTAAG [TGCATGCA_negctrl_site537]” it is 6.76; for “TTATATATATATAATACACACATAATAATATATTTA [CACACA_site3038]” it is 6.67.

Turning to “ATTTTTTTTATTTTTTCAATATATATATATATATAT [CACACA_negctrl_site1444]”, the “gcPBM binding intensity (ln)” value came to 9.39. The figure for “CGCACAAAAATATACACACACACATCTATATTTATT [CACACA_site7675]” is 7.41; for “AAAACAAATGAGTACACACACATAAAAGTTGAAAAT [CACACA_site6238]” it is 6.97; for TACCCATATTAATATGTGCGCATATAAAAGTCAAAC it is 8.1. The figure for “ATAAGATATGTATATACACACATTTATTTACATATA [CACACA_site3263]” is 6.56; for “GCATAAGAAATAAATAGTACACACATAGACACACAC [XGTACX_site3095]” it is 7.68; for “TATATATATATATACACACACATATATATATATATA [CACACA_site1346]” it is 9.3. Consider “ATATATATATCAACAACACACGATTAACTAAAAAAA [CACACA_site302]”, for which the “gcPBM binding intensity (ln)” value came to 7.67. With “TTTTTTTAAACTGAAAGTACTTATTCCAAGAAAATA [XGTACX_site50]” the figure was 5.94.

In the case of “ATAATGACTAAATTTAAACACACAAGGGGAGTTTAC [CACACA_site8209]”, the “gcPBM binding intensity (ln)” value is 6.31.

In the case of “TATGAAAAAATATATACACACATAATAAAGGTATAT [CACACA_site3737]”, the “gcPBM binding intensity (ln)” value amounted to 6.42. In the case of “TTTGTTTTAAATATTATACACACGTAAAAGTATAAT [CACACA_site7954]”, the “gcPBM binding intensity (ln)” value was 6.57.

For the sequence “TAATATTATATATAAACACACATACCCATGTAAATA [CACACA_site5170]”, the “gcPBM binding intensity (ln)” value was determined as 6.8. The figure for “AAAAAAAAAAATATATTATTTTACTTGTTTATTTTT [GTGCAC_negctrl_site435]” is 6.14; for “AATAATCAAATATTAAAAATTGTGCAAAAAAAAAAA [XGTACX_negctrl_site399]” it is 9.8; for “TCGTACTTGTATTATGCACACATATAATTAAACATA [CACACA_site9089]” it is 10.5. The figure for “TAAAAAAAATAAACGTGTACATAAAAATGAATATGT [XGTACX_site119]” is 6.54; for “TTAATATATTAAATCTTACACACTAAAAAATATGTA [CACACA_site307]” it is 6.24. With “AGTATACATATATATACACACACACCGATATATATA [CACACA_site8357]” the figure was 6.85; with “TATGCGTCTTGCCTTGCACACTTTTATGAAAAAAAA [CACACA_site5174]”, 8.05. As to “GAAAATATTATAGCACCACACACTTATTTTATATAT [CACACA_site2265]”, the “gcPBM binding intensity (ln)” value was determined as 6.71. Turning to “AACGTTAAAAAAAAAATATATATAAGGAGAAAGCAC [XGTACX_negctrl_site338]”, the “gcPBM binding intensity (ln)” value was found to be 6.8. With “TTCAATAGTAAGTATACACACATATATATATATAAA [CACACA_site2687]”, the “gcPBM binding intensity (ln)” value was found to be 6.83. The figure for “TAATTCGCAAAAGAAAGAAATTAAGAAAAAGAAAAA [XGTACX_negctrl_site614]” is 5.89; for “TTTTTAAAAATATACACACACAGATATTATAGATAT [CACACA_site6511]” it is 6.89; for “TTTCTTTTTTTTTTTTCATTGATCCATTTATGATTA [TGCATGCA_negctrl_site225]” it is 6.39. With “TTATAGGTTCTATACATATATTTATATATGTACAGA [CACACA_negctrl_site60]” the figure was 6.02; with “CAAGCTATGTATTCTACACACACATACACCCATATA [CACACA_site9133]”, 7.22; with “ATATATATAATATAATGTACGTATAATAATATGAGA [XGTACX_site2282]”, 6.76.

With “ATATGTAAATAAATATGTACTCATTTATTATTTTAT [XGTACX_site8748]”, the “gcPBM binding intensity (ln)” value came out at 6.36. The figure for “CGTTATATATATAAAAGTACAAAAATTAAACATTCC [XGTACX_site4568]” is 6.47. The figure for “ATATGTATATTTTTTTGTACGTATTTATGTGTGTGT [XGTACX_site2093]” is 6.72. With “ATATATACAAGTATTTTTTTTTCAAACATTATTTTT [CACACA_negctrl_site1808]”, the “gcPBM binding intensity (ln)” value came to 6.26. The figure for “TAAAAGGTGTATATAATACACACGTGGGATTAGAAT [CACACA_site610]” is 6.89; for “ATATATATATATATATGTACATAATAATATATATTA [XGTACX_site111]” it is 9.27; for “ATATGTTATATGTAATGTACTTTTGATGTATATATT [XGTACX_site8615]” it is 6.62.

Turning to “AAAATATTATAAATTTGTACTTATAAATATTGTATA [XGTACX_site8165]”, the “gcPBM binding intensity (ln)” value worked out at 6.23.

For the sequence “TATATAAAGCATTGTAGTACTACCAATATTTTTTTT [XGTACX_site3523]”, the “gcPBM binding intensity (ln)” value is 6.63. On to “AAAAAATATACATATACACACATATGTATATAGAAT [CACACA_site2170]”, for which the “gcPBM binding intensity (ln)” value was 6.33. The figure for “AAAATAAACAATGAACAATAAACAATGAACAATGAA [CACACA_negctrl_site1194]” is 6.47; for “TAATAAATAAAATATGCACACAAATATAGGAAACAA [CACACA_site8820]” it is 9.13. The figure for “AACATGAAAATATATGCATTTGTATATATATATATA [TGCATGCA_negctrl_site16]” is 9.4. As for “TATTGTAATATTAGCACACATTACCTCACTACAAAT [CACACA_site5419]”, the “gcPBM binding intensity (ln)” value turned out to be 7.61.

On to “AAAATACTAGATAGGGGAAAAAAAAAAAAAAAAAAA [CACACA_negctrl_site1732]”, for which the “gcPBM binding intensity (ln)” value was 6.26. Consider “ATAAATGATAAAATTGCATGTGAATGTGAAAATATT [TGCATGCA_site251]”, for which the “gcPBM binding intensity (ln)” value amounted to 6.85. Consider “AAAGCACCCATGCACACACACAAAGGAAAAGAAAAA [CACACA_site6249]”, for which the “gcPBM binding intensity (ln)” value was 8.98. Regarding “AATAAAACCCCGAAATCACACATTAAATGAAAAATA [CACACA_site4732]”, the “gcPBM binding intensity (ln)” value turned out to be 7.29.

“TGGGAAAATAATATTTATTTTATATATAAATATATA [CACACA_negctrl_site121]”: the “gcPBM binding intensity (ln)” value was 6.35. Consider “AAAAAAAAAAAAGATTGTACAGAATACTTTTAAAAT [XGTACX_site3576]”, for which the “gcPBM binding intensity (ln)” value was found to be 6.37. The figure for “AAGTTAATGAAAAAATGTACCCAGAGTATTTTAAAA [XGTACX_site2997]” is 6.47; for “TAAAATAAAACAAACACACACACACGGACACAAAAA [CACACA_site7754]” it is 7.04; for “TTTTTTTTTTATTTTGCACACTTCTAATTTAGTTCT [CACACA_site5828]” it is 10.7. With “ATATAAATAAAATATACACACATACTGTTCATTTAA [CACACA_site7880]” the figure was 6.46; with “TCCATATATTTTAAAAGTACACATAAAAATTATTTA [XGTACX_site8127]”, 6.32. The figure for “AATGGAAAAATAGGCACACACACATATATACATATA [CACACA_site1298]” is 6.74. On to “TTGTTTTTCTTTGAATGTACTTAATGATTTCCAATT [XGTACX_site2499]”, for which the “gcPBM binding intensity (ln)” value amounted to 6.44.

For the sequence “TTTATTTTGATTTAATGTACAAATAGTAAAACAAAA [XGTACX_site4789]”, the “gcPBM binding intensity (ln)” value was 6.55. With “CTATAACCTCTGTTCACACATATATCATAATTTACA [CACACA_site5446]” the figure was 6.84; with “ACATTATATCTAAGTACACACATTAATTTTTTTTTT [CACACA_site7850]”, 6.78; with “TATTTAAAAGCATATACACACAACTGGAATGAAAAG [CACACA_site6128]”, 7.18. Consider “GTTTCAAAATTAAACACACACAAAAAAAAAAAAAAA [CACACA_site2680]”, for which the “gcPBM binding intensity (ln)” value is 6.25.

As to “TATTATATCTTTATTATTCATCTAAAATTTGTATTT [TGCATGCA_negctrl_site233]”, the “gcPBM binding intensity (ln)” value came out at 6.21.

The values are drawn from the supplement of paper PMC11417369.
